# Experimental data as given in PubChem BioAssay (Tox21).
# Several values for one entry are separate records, joined by “and”; a condition that tells them apart may be missing. Equal entries are not always repeated. This list was built around the results that the source calls inconclusive (neither active nor inactive); the mix of calls is not that of the screen. For some of these results: Where the call is inconclusive, the potency comes from a doubtful curve fit. Some structures have more than one record in an assay (separate samples or runs), and their calls can disagree. Activity calls are given as the source filed them. Unless noted, calls come from the whole dose curve; as a rule, active = well fitted curve in the direction sought with a large enough effect in the repeat runs; inconclusive = weak or mixed curves; inactive = no such curve, though single readings can be large; an effect the other way counts as inactive or inconclusive.
# Key:
# [1] = qHTS assay for small molecules that induce genotoxicity in human embryonic kidney cells expressing luciferase-tagged ATAD5 (AID 651632); note: potency is the fitted concentration of half-maximal effect; nearly all actives have a fitted effect of over 15% in size
# Method in brief: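 HEK293T cells carrying a luciferase reporter tagged to ATAD5 were exposed to compound or DMSO vehicle for 16 hr at 37C, 5% CO2. Amplite was added, and after 30 min at room temperature luciferase activity was read as a marker of ATAD5 induction.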
# [2] = qHTS assay for small molecule disruptors of the mitochondrial membrane potential - cell viability (AID 720634; calls by dose curve; note: potency is the fitted concentration of half-maximal effect; nearly all actives have a fitted effect of over 20% in size)
# Method in brief: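 HepG2 cells seeded overnight at 37 C, then exposed to compound or DMSO for 1 hr at 37 C, 5% CO2. m-MPI dye added, then CellTiter-Glo for 30 min at room temperature; viability read as ATP luminescence.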
# [3] = qHTS assay for small molecule disruptors of the mitochondrial membrane potential (AID 720635); conditions: HepG2 mitochondrial membrane potential, Mito-MPS dye ratio; note: potency is the fitted concentration of half-maximal effect; for ratio activity, negative = MMP loss: % is set by controls: 0 for no effect and ±100 for the full control effect
# Method in brief: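 Mitochondrial membrane potential tracked with Mito-MPS dye, red aggregates (ex 540/em 590 nm) against green monomers (ex 490/em 535 nm). Compound treatment 1 hr at 37C, dye 30 min in HepG2.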
# [4] = qHTS assay to test for compound auto fluorescence at 460 nm (blue) in HEK293 cells (AID 720678); note: potency is the fitted concentration of half-maximal effect
# Method in brief: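 Cells were seeded and left to adhere for 4-5 hr at 37C. Compounds were then pin-transferred. After an overnight incubation at 37C under 5% CO2, intrinsic fluorescence at 405/460 nm was measured and referenced to triamterene.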
# [5] = target: Glucocorticoid receptor (Homo sapiens) (UniProt P04150); assay: qHTS assay to identify small molecule agonists of the glucocorticoid receptor (GR) signaling pathway (AID 720691; active = well fitted activation curve with a large enough effect in the signal ratio in the repeat runs, not every such curve was filed as active; inconclusive = weak or mixed curves, or effect the other way; inactive = no such curve, though single readings can be large or run the other way; the % refers to the signal ratio; note: potency is the fitted concentration of half-maximal effect); conditions: GR-bla HeLa, beta-lactamase reporter ratio, 18 h; activation: at 62.4 µM (top of the series) unless noted
# Method in brief: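 GR-bla HeLa cells (beta-lactamase reporter under glucocorticoid response element) were plated 4 h at 37 C/5% CO2, given compounds in DMSO, and incubated 18 h at 37 C. LiveBLAzer B/G FRET substrate was added for 2 h at room temperature, then fluorescence intensity read.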
# [6] = target: Glucocorticoid receptor (Homo sapiens) (UniProt P04150); assay: qHTS assay to identify small molecule antagonists of the glucocorticoid receptor (GR) signaling pathway (AID 720692; active = well fitted inhibition curve with a large enough effect in the signal ratio in the repeat runs, not every such curve was filed as active; inconclusive = weak or mixed curves, or effect the other way; inactive = no such curve, though single readings can be large or run the other way; the % refers to the signal ratio; note: potency is the fitted concentration of half-maximal effect); conditions: GR-bla HeLa, beta-lactamase FRET ratio, dexamethasone-stimulated, 18 h; activity change, negative = inhibition: at 58.5 µM (top of the series) unless noted
# Method in brief: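 GR-bla HeLa cells (beta-lactamase reporter under glucocorticoid response element) were pre-plated 4 h at 37 C, treated with compounds plus 5 nM dexamethasone (final) for 18 h, then read by LiveBLAzer B/G FRET fluorescence after 2 h.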
# [7] = qHTS assay for identifying genotoxic compounds that show differential cytotoxicity against isogenic chicken DT40 cell lines with known DNA damage response pathways - wild type cell line (AID 743012); conditions: DT40 wild type chicken cells viability, CellTiter-Glo, 40 h; activity change, negative = cytotoxicity: at 68.4 µM (top of the series) unless noted; note: nearly all actives have a fitted effect of over 60% in size; note: potency is the fitted concentration of half-maximal effect
# Method in brief: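 Parental DNA repair-proficient DT40 cells, 300 per well, were pre-incubated ~0.5 h at 37 C/5% CO2, pin-dosed with compounds in DMSO, then incubated 40 h. Viability was read as CellTiter-Glo luminescence after 30 min at room temperature.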
# [8] = qHTS assay for identifying genotoxic compounds that show differential cytotoxicity against isogenic chicken DT40 cell lines with known DNA damage response pathways - Rev3 mutant cell line (AID 743014); conditions: chicken DT40 Rev3-/- viability, CellTiter-Glo, 40 h; activity, negative = cytotoxicity: at 68.4 µM (top of the series); note: nearly all actives have a fitted effect of over 55% in size; note: potency is the fitted concentration of half-maximal effect; for activity, negative = cytotoxicity: % is set by controls: 0 for no effect and ±100 for the full control effect
# [9] = qHTS assay to test for compound auto fluorescence at 535 nm (green) in HepG2 cells (AID 720675); note: % is set by controls: 0 for no effect and ±100 for the full control effect
# [10] = qHTS assay for small molecule agonists of the p53 signaling pathway - cell viability (AID 651633; calls by dose curve; note: potency is the fitted concentration of half-maximal effect; nearly all actives have a fitted effect of over 30% in size)
# Method in brief: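 Viability counter-read: CellTiter-Glo luminescence (30 min, room temperature) in the same p53RE-bla plates. These plates had been exposed to compounds for 16 h at 37 C.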
# [11] = qHTS assay for small molecules that induce genotoxicity in human embryonic kidney cells expressing luciferase-tagged ATAD5 - cell viability (AID 651634; calls by dose curve; note: potency is the fitted concentration of half-maximal effect; nearly all actives have a fitted effect of over 25% in size)
# Method in brief: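 HEK293T cells expressing luciferase-tagged ATAD5 were exposed to compound or DMSO for 15.5 hr at 37C, 5% CO2. Viability was then read as live-cell protease activity by CellTiter-Fluor fluorescence after 30 min at 37C.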
# [12] = qHTS assay to identify small molecule antagonists of the glucocorticoid receptor (GR) signaling pathway - cell viability counter screen (AID 720693); conditions: GR-bla HeLa viability, CellTiter-Glo luminescence, 18 h, with 5 nM dexamethasone present; viability change, negative = cytotoxic: at 58.5 µM (top of the series) unless noted; note: potency is the fitted concentration of half-maximal effect; nearly all actives have a fitted effect of over 55% in size
# [13] = qHTS assay to identify small molecule antagonists of the androgen receptor (AR) signaling pathway - cell viability counter screen (AID 743033; note: nearly all actives have a fitted effect of over 45% in size; note: potency is the fitted concentration of half-maximal effect; for activity change, negative = cytotoxicity: % is set by controls: 0 for no effect and ±100 for the full control effect); conditions: AR-bla HEK293 viability, CellTiter-Glo luminescence, 16 h; activity change, negative = cytotoxicity: at 58.5 µM (top of the series)
# [14] = ratio activity, negative = MMP loss: at 83.2 µM (top of the series) unless noted
# Tags give direction and shape of the fitted curve or compound fluorescence and quenching.
# Sequence of UniProt P04150 (P04150 whole entry, looked up): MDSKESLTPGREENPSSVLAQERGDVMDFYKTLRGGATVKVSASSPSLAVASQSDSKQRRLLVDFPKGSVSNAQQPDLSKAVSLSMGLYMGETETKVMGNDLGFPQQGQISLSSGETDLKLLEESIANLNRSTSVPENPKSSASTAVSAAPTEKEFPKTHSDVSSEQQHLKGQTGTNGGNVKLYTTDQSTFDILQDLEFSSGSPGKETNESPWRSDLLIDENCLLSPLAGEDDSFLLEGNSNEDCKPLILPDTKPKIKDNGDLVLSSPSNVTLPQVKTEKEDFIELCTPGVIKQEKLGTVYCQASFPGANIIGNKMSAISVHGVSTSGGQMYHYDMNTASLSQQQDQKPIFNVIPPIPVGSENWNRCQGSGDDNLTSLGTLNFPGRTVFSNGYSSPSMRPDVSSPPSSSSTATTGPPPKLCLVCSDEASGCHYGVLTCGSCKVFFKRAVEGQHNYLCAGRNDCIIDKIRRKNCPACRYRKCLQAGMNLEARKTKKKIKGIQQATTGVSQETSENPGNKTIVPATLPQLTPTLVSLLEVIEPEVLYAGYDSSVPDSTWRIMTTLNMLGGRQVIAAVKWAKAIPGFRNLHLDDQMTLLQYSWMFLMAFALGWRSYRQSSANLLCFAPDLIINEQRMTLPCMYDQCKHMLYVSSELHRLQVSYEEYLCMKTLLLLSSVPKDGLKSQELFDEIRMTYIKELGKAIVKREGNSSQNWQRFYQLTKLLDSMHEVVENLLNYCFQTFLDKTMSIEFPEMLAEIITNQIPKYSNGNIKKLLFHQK
smiles,measurement,setting,value
N#Cc1c2ccccc2cc2ccccc12,Potency,[1],"inconclusive: 68.5 µM [activator, partial curve, poor fit]"
same,Potency,[2],"inconclusive: 27.3 µM [cytotoxic, partial curve, poor fit]"
same,Potency,[3]; [14],active: 1.72 µM
same,Potency,[4],active: 1.26 µM [fluorescent]
same,Potency,[5],"inconclusive: 10.9 µM [fluorescent, full curve]"
same,Potency,[6],"inconclusive: 21.8 µM [fluorescent, full curve]"
same,Potency,[7],"inconclusive: 15.3 µM [rising, single point]"
same,Potency,[8],inactive
Cc1ccc(OP(=O)(Oc2ccc(C)cc2)Oc2ccc(C)cc2)cc1,Potency,[1],"inconclusive: 17.2 µM [activator, full curve, poor fit]"
same,Potency,[2],"inconclusive: 54.4 µM [cytotoxic, partial curve] and inconclusive: 24.3 µM [cytotoxic, partial curve, poor fit]"
same,Potency,[3]; [14],"inconclusive: 5.44 µM [fluorescent, full curve] and active: 24.3 µM"
same,Potency,[9],inactive
same,Potency,[8],"inconclusive: 54.4 µM [cytotoxic, partial curve] and active: 38.6 µM"
C[CH2][Hg][S]c1ccccc1C(=O)O,Potency,[10],active: 3.35 µM and active: 2.43 µM
same,Potency,[11],active: 11.9 µM and active: 27.3 µM
same,Potency,[2],active: 13.3 µM and active: 15.4 µM
same,Potency,[3]; [14],active: 11.9 µM and active: 15.4 µM
same,Potency,[5],"inconclusive: 2.39 µM [falling, full curve] and inconclusive: 9.77 µM [falling, full curve]"
same,Potency,[12],active: 7.56 µM and active: 6.16 µM
same,Potency,[8],active: 596 nM and active: 137 nM
same,Potency,[13],active: 10.7 µM and active: 4.9 µM
Cc1ccc(N(SC(F)(Cl)Cl)S(=O)(=O)N(C)C)cc1,Potency,[10],"inconclusive: 2.73 µM [cytotoxic, partial curve, poor fit]"
same,Potency,[11],"inconclusive: 68.6 µM [falling, partial curve, poor fit]"
same,Potency,[2],inconclusive: 68.6 µM [cytotoxic]
same,Potency,[13],active: 3.47 µM
CC(C)CC(C)Nc1ccc(Nc2ccccc2)cc1 (configuration not stated),Potency,[10],active: 53.5 µM
same,Potency,[11],"inconclusive: 67.4 µM [falling, single point]"
same,Potency,[2],active: 23.9 µM
same,Potency,[3]; [14],active: 13.4 µM
same,Potency,[5],inconclusive: 54 µM [cytotoxic]
same,Potency,[12],active: 48.2 µM
same,Potency,[7],active: 26.8 µM
COP(=O)(OC)OC=C(Cl)Cl,Potency,[1],"inconclusive: 26.6 µM [activator, partial curve, poor fit]"
same,"ratio activity, negative = MMP loss",[3]; at 83.2 µM (top of the series),inactive: -22.1%
same,"ratio activity, negative = MMP loss",[3]; at 95.3 µM (top of the series),inactive: -2.69%
same,"ratio activity, negative = MMP loss",[3]; [14],inconclusive: 29.2%
same,Potency,[12],"inconclusive: 7.56 µM [rising, full curve, poor fit]"
same,Potency,[7],"inconclusive: 69.3 µM [rising, single point]"
same,Potency,[13],inactive
C[C@H]1CC[C@@H]2[C@@H](C)[C@H]3[C@H](C[C@H]4[C@@H]5CC=C6CC(O[C@@H]7O[C@H](CO)[C@H](O)[C@H](O[C@@H]8O[C@H](CO)[C@@H](O)[C@H](O)[C@H]8O)[C@H]7O[C@H]7O[C@@H](C)[C@H](O)[C@@H](O)[C@H]7O)CC[C@]6(C)[C@H]5CC[C@]34C)N2C1 (some centres not stated),Potency,[1],"inconclusive: 10.6 µM [activator, partial curve] and inconclusive: 25.1 µM [activator, partial curve, poor fit]"
same,Potency,[11],active: 26.6 µM and active: 63.1 µM
same,Potency,[2],active: 18.8 µM and active: 70.8 µM
same,Potency,[3]; [14],active: 18.8 µM and active: 35.5 µM
same,Potency,[5],"inconclusive: 21.3 µM [cytotoxic, partial curve, poor fit]"
same,Potency,[12],"inconclusive: 2.68 µM [rising, single point]"
same,Potency,[8],"inconclusive: 33.5 µM [cytotoxic, single point]"
same,Potency,[13],"inconclusive: 21.3 µM [cytotoxic, partial curve]"
CCCCCCCCCCCCn1cc[n+](C)c1,Potency,[10],"inconclusive: 69.8 µM [cytotoxic, single point] and inconclusive: 69.2 µM [cytotoxic, single point]"
same,Potency,[11],"inconclusive: 30.6 µM [falling, partial curve, poor fit]"
same,Potency,[12],"inconclusive: 19.5 µM [cytotoxic, partial curve]"
same,"activity change, negative = cytotoxicity",[7],inconclusive: -11.5%
same,Potency,[8],inconclusive: 68.2 µM [cytotoxic]
